Experimental data reported in PubChem BioAssay AID588342 (National Center for Advancing Translational Sciences (NCATS), 2011).
In all, about 360,000 compounds went through this assay and about 25,000 (6.9%) were called active. Inconclusive results, whose numbers are uncertain, are shown with a selection of clear calls. The call rests on the fitted dose curve; in most records, active means well fitted inhibition curve with a large enough effect; inconclusive means small, poorly fitted or top-dose-only effect; inactive means flat fitted curve, though single readings scatter. Potencies beside an inconclusive call are fits to weak or partial responses and may not hold up.

These compounds were tested against Luciferin 4-monooxygenase (Photinus pyralis) (UniProt P08659) (assay: qHTS profiling assay for firefly luciferase inhibitor/activator using purifed enzyme and Km concentrations of substrates (counterscreen for miR-21 project)). Conditions: purified FLuc, luminescence inhibition; activity change, negative = inhibition: at 57.5 µM (top of the series).
UniProt P08659, sequence (P08659 whole entry, looked up): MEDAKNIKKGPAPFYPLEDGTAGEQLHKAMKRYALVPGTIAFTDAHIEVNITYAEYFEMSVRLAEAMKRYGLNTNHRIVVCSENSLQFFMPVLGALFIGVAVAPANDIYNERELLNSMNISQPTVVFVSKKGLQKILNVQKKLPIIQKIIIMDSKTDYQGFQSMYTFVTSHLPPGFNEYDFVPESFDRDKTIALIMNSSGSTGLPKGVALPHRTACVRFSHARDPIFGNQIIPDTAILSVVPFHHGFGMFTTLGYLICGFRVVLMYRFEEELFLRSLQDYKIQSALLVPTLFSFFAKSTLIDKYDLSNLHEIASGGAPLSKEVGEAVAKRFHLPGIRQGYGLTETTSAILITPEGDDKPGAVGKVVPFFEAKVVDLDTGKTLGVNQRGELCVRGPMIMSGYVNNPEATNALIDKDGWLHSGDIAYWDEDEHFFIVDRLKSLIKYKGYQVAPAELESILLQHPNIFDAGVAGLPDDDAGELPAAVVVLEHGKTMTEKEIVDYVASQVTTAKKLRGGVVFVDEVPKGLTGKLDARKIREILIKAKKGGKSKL
In short: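 Purified P. pyralis luciferase (10nM final) with 10uM D-luciferin and 10uM ATP (Km levels) in 50mM Tris acetate pH 7.5, 10mM Mg acetate, 0.01% Tween-20, 0.05% BSA; qHTS 6-point titration, ~60 µM downward; luminescence read.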
Further: nearly all actives have a fitted effect of over 55% in size.
Potency means the concentration at half of the fitted maximal effect; tags describe the fitted curve by direction and shape.
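Wherever activity change, negative = inhibition is given: plate controls were vehicle for no effect and reference inhibitor for full effect.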

SMILES | Potency | activity change, negative = inhibition
Cc1nc2ccc(NC(=O)N3CCCCC3)cc2s1 | inconclusive: 26.9 µM [inhibitor, single point] | 
Cc1ccccc1N(CC(=O)N/N=C/c1cc(C)n(-c2ccccc2C)c1C)S(C)(=O)=O | inconclusive: 16.9 µM [inhibitor, partial curve] | 
COc1cccc(NC(=O)C2CCCN2S(=O)(=O)c2ccc3nc(-c4ccccc4)[nH]c3c2)c1 (centres undefined) | inconclusive: 10.7 µM [inhibitor, partial curve, poor fit] | 
O=C(/C=C/c1cn(CC(O)CN2CCOCC2)c2ccccc12)c1cccs1 (centres undefined) | inconclusive: 23.9 µM [inhibitor, single point] | 
COc1ccc(-c2ccc(SCC(=O)Nc3nnc(C)s3)nn2)cc1 | active: 1.35 µM | 
CN(C)CCSc1nnc(-c2ccccc2)o1 | inconclusive: 19 µM [inhibitor, partial curve] | 
COc1ccc(NS(=O)(=O)c2cccc(C(=O)N/N=C(\C)c3ccncc3)c2)cc1 |  | inactive: -1.52%
CCOC(=O)Cc1cc(=O)n2[nH]c(-c3ccc(Cl)cc3)cc2n1 | active: 13.5 µM | 
N=C1SCC(=O)N1c1ncc(Cc2ccccc2Cl)s1 | inconclusive: 23.9 µM [inhibitor, single point] | 
O=C(O)c1cccc(-n2cccc2/C=C2/NC(=O)N(Cc3ccccc3F)C2=O)c1 | inconclusive: 16.9 µM [inhibitor, partial curve, poor fit] | 
O=C(Nc1ncccn1)c1cc(-c2ccc(F)cc2)nc2ccccc12 | inconclusive: 16.9 µM [inhibitor, partial curve, poor fit] | 
COC(=O)C(Cc1ccc(OC(=O)c2ccccc2Cl)cc1)N1Cc2ccccc2C1=O (centres undefined) | inconclusive: 15.1 µM [inhibitor, partial curve] | 
O=[N+]([O-])c1ccccc1N/N=C/c1cccc(O)c1O | active: 1.51 µM | 
Cc1ccc(NC(=O)N(C)c2ccccc2)cc1 | inconclusive: 23.9 µM [inhibitor, single point] | 
Cc1ccc(C(=O)/C=C/c2cn(CC(O)CN3CCCCCC3)c3ccccc23)cc1 (centres undefined) | inconclusive: 23.9 µM [inhibitor, partial curve] | 
CCOC(=O)c1ccc2nc(C)c(CC)c(Cl)c2c1 | inconclusive: 26.9 µM [inhibitor, partial curve] | 
COc1cc(NS(=O)(=O)c2ccc(NC(=O)c3ccc(OC)c(Br)c3)cc2)nc(OC)n1 | inconclusive: 13.5 µM [inhibitor, partial curve] | 
CCOc1ccccc1CSc1nc2ccccc2[nH]1 | inconclusive: 21.3 µM [inhibitor, partial curve, poor fit] | 
COC(=O)c1c(NC(=O)CC2SC(N)=NC2=O)sc2c1CCC(C(C)(C)C)C2 (centres undefined) | inconclusive: 23.9 µM [inhibitor, partial curve, poor fit] | 
Cc1ccc(C2=NS(=O)(=O)N(C)C(C(=O)NCc3cccs3)=C2)cc1 | inconclusive: 23.9 µM [inhibitor, single point] | 
C/C(=N/NC(=O)c1ccoc1C)c1ccc(NC(=O)c2ccncc2)cc1 | inconclusive: 9.53 µM [inhibitor, partial curve] | 
CC1(C)CCC(=O)N2CC[C@H]3C[C@H](OC(=O)Nc4ccc(Br)cc4)C[C@@H]1[C@H]32 | inconclusive: 23.9 µM [inhibitor, partial curve] | 
Cc1ccccc1OCCC(=O)OCC(=O)NCCc1ccc(S(N)(=O)=O)cc1 |  | inactive: 0.732%

SMILES | Potency | activity change, negative = inhibition
OCCN(CCO)CC(O)COc1ccc(C23CC4CC(CC(C4)C2)C3)cc1 (centres undefined) | inconclusive: 26.9 µM [inhibitor, partial curve] | 
CNC(=O)c1c(NC(=O)C2=COCCO2)sc2c1CCCC2 | active: 16.9 µM | 
O=C(O)C(Cc1c[nH]c2ccccc12)NS(=O)(=O)c1ccc(Cl)cc1 (centres undefined) | inconclusive: 16.9 µM [inhibitor, partial curve] | 
CCOC(=O)c1ccc(NC(=S)NCCCN2CCOCC2)cc1 |  | inactive: -0.664%
CN1CCc2c(sc(NC(=O)c3ccco3)c2C(N)=O)C1 | inconclusive: 23.9 µM [inhibitor, single point] | 
Cc1ccc(C(=O)O/N=C/c2c(C(F)(F)F)nn(C)c2Sc2ccc(Cl)cc2)cc1 | inconclusive: 9.53 µM [inhibitor, partial curve] | 
CCCOc1ccc(-c2cccc(NS(=O)(=O)c3ccc(CC)cc3)c2)nn1 | inconclusive: 10.7 µM [inhibitor, partial curve, poor fit] | 
CNC(=O)c1ccc(Nc2nnc(-c3ccc(C)c(S(=O)(=O)NCC4CCCO4)c3)c3ccccc23)cc1 (centres undefined) | inconclusive: 23.9 µM [inhibitor, single point] | 
Clc1ccc(OCc2cn3ccccc3n2)c2ncccc12 | active: 12 µM | 
COc1ccc(OC)c(C(=O)COC(=O)c2cccnc2SC)c1 |  | inactive: -3.31%
CC(=O)c1ccc(NC(=O)c2cc(C3CC3)nc3c2c(C)nn3-c2ccc(C)cc2)cc1 |  | inactive: -1.77%
c1cc(-c2nsc(-c3ccncc3)n2)ccn1 | inconclusive: 37.9 µM [inhibitor, partial curve, poor fit] | 
CCOc1cccc(NC(=O)c2cccc(F)c2)c1 | inconclusive: 21.3 µM [inhibitor, partial curve, poor fit] | 
C1=Nc2c(Nc3ccccc3)ncnc2Oc2ccccc21 | inconclusive: 37.9 µM [inhibitor, partial curve, poor fit] | 
CCOc1ccc2nc(NC(=O)c3ccoc3C)sc2c1 | active: 0.478 µM | 
Cn1c(=O)c2c(n3c4ccccc4nc13)NC(=O)CC2c1cccc(Cl)c1 (centres undefined) | inconclusive: 26.9 µM [inhibitor, partial curve, poor fit] | 
CN1CCN(c2ccc(-c3ccc4ccccc4n3)cc2)CC1 | active: 0.12 µM | 
CCc1noc(C)c1C(=O)Nc1ccccc1C(C)(C)C |  | inactive: 1.17%
CS(=O)(=O)N(CC(=O)N1CCN(Cc2ccccc2)CC1)c1cccc([N+](=O)[O-])c1 |  | inactive: -0.317%
Cc1ccc2cc3cc(C(=O)NC4CCCCC4)oc3nc2c1 | inconclusive: 6.75 µM [inhibitor, partial curve] | 
CC1=C(C)CC(C(=O)NCCc2ccc(F)cc2)C(C(=O)O)C1 (centres undefined) |  | inactive: 6.51%
O=C(Nc1ccc(N2CCOCC2)c(Cl)c1)c1ccc(F)cc1 | active: 13.5 µM | 
Cc1nc(N)sc1C(=O)N/N=C/c1ccco1 | inconclusive: 33.8 µM [inhibitor, partial curve, poor fit] | 

SMILES | Potency | activity change, negative = inhibition
O=C(Nc1ccc(Cl)c(Cl)c1)OCc1cncs1 | inconclusive: 26.9 µM [inhibitor, partial curve, poor fit] | 
COc1ccccc1N1CCN(C(=O)c2ccc(N3CCCCS3(=O)=O)cc2)CC1 |  | inactive: 2.41%
O=C(NNC(=O)C1CCN(S(=O)(=O)c2ccc(Cl)cc2)CC1)c1ccccc1O |  | inactive: -1.36%
COc1ccc(CCCc2nnc(SCC(=O)Nc3ccccc3F)o2)cc1C | inconclusive: 26.9 µM [inhibitor, partial curve] | 
O=C(N/N=C1\CCCc2ccccc21)c1ccccc1Cl | inconclusive: 23.9 µM [inhibitor, partial curve] | 
CCCOc1cccc(C(=O)Nc2nnn(CCC)n2)c1 | inconclusive: 16.9 µM [inhibitor, partial curve] | 
COc1ccc(OCc2cc(C(=O)NCCc3ccccc3)no2)c(Cl)c1 | inconclusive: 30.1 µM [inhibitor, single point] | 
Cn1cc(/C=N/Nc2ccccc2)c2ccccc21 | active: 13.5 µM | 
CCCn1c(SCC(=O)Nc2ccccc2Cl)n[nH]c1=O |  | inactive: 0.197%
Cc1nn(-c2ccc(F)cc2)c(Cl)c1/C=C(\CC(=O)O)c1nc2ccccc2s1 | inconclusive: 26.9 µM [inhibitor, partial curve, poor fit] | 
Cc1ccnc(NC(=O)CN2C(=O)NC(C)(c3ccc4ccccc4c3)C2=O)c1 (centres undefined) | inconclusive: 26.9 µM [inhibitor, partial curve, poor fit] | 
O=c1c(Cl)c(O)c2cccc3c4ccccc4n1c23 | inconclusive: 23.9 µM [inhibitor, single point] | 
CC(=O)Nc1ccc(Nc2nnc(-c3ccc(O)cc3)c3ccccc23)cc1 | inconclusive: 37.9 µM [inhibitor, partial curve, poor fit] | 
COc1ccc(-n2nc(C(=O)NCC(=O)Nc3ccc(F)cc3)c3ccccc3c2=O)cc1 |  | inactive: -0.478%
COc1ccc(NC(=O)c2csc(Cc3ccccc3)n2)cc1 | active: 6.75 µM | 
COc1ccc(CNC(=O)Nc2cccc(C)c2)cc1 | inconclusive: 9.53 µM [inhibitor, partial curve] | 
CN1CCN(c2ccc(C(=O)c3ccccc3)cc2[N+](=O)[O-])CC1 | inconclusive: 26.9 µM [inhibitor, single point] | 
CCOC(=O)C1=NN(C(=O)c2ccccc2)C(O)(c2ccc(C)cc2)C1 (centres undefined) | inconclusive: 13.5 µM [inhibitor, single point] | 
COc1ccc(NC(=O)c2ccc3c(c2)NC(=O)CS3)cc1 | inconclusive: 7.57 µM [inhibitor, partial curve, poor fit] | 
O=C(Nc1cnc2sc3c(n2c1=O)CCCC3)c1ccc(F)cc1 | inconclusive: 26.9 µM [inhibitor, single point] | 
COc1cccc(CC(=O)Nc2nc(-c3cc(OC)ccc3OC)cs2)c1 |  | inactive: -23.9%
CCc1ccc(Oc2nc3c(C)cccn3c(=O)c2/C=C(\C#N)c2nc3ccccc3s2)cc1 |  | inactive: -3.9%
Cc1cc(-c2cc(C(=O)O)c3ccccc3n2)c(C)s1 | inconclusive: 21.3 µM [inhibitor, partial curve, poor fit] | 
